Sequences with one replicate were seen in a single cluster, so their values are uncertain.
What follows are sequences tested on ATP (assay: switch fluorescence ratio, 500 uM ATP over buffer (Cy3 cluster intensity, sum of 5 cycles each) (fold (ratio)); higher = stronger signal-on switching upon ATP binding; sequences stand for … in TCGTCGGCAGCGTCAGATGTGTATAAGAGACAGTTTTTTTTTTTTTTTTTTTTTTTTT…TC). Conditions: aptamer strand: ATP DNA aptamer (quencher-CACCTGGGGGAGTATTGCGGAGGAAGG + anchor), 100 nM annealed; ATP concentration: 500 uM; one replicate.
Procedure, shortened: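 Clusters with intensities outside 100-1000 RFU were excluded. The remaining Cy3-labelled switching-strand clusters on a modified Illumina MiSeq flow-cell had been annealed to 100 nM quencher-labelled ATP aptamer and imaged in selection buffer, then after 15 min with 500 uM ATP at 22 °C, for five cycles separated by NaOH stripping and re-annealing. The fluorescence ratio, averaged per switch-domain sequence, is each cluster's summed target-cycle Cy3 intensity over its summed buffer-cycle Cy3 intensity.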
For GTCTAATTAT, the switch fluorescence ratio was 0.998. In the case of GTCTATGAGG, the switch fluorescence ratio is reported as 0.985. For GTCTATTAAG, the switch fluorescence ratio was 0.971. GTCTCGTTTA was tested, and the switch fluorescence ratio was 0.984. With GTCTGAGAAT the switch fluorescence ratio was 0.958. Sequence GTCTGCCTCT has a switch fluorescence ratio of 0.985. GTCTGGGGCA was tested, and the switch fluorescence ratio was 0.959. GTCTGGGTCA showed a switch fluorescence ratio of 0.996. GTCTGTGACA gave a switch fluorescence ratio of 1.02. GTCTTATATC was tested, and the switch fluorescence ratio was 1.17. GTCTTCAGCT was tested, and the switch fluorescence ratio was 0.987. With GTCTTTAATC the switch fluorescence ratio was 0.95. GTCTTTCATT showed a switch fluorescence ratio of 1.01. GTGAAACGG was tested, and the switch fluorescence ratio was 0.991. GTGAACCATA showed a switch fluorescence ratio of 1.01. GTGAACGCAG was tested, and the switch fluorescence ratio was 1.08. Sequence GTGAAGGGAG has a switch fluorescence ratio of 0.965. In the case of GTGAAGGGT, the switch fluorescence ratio is reported as 0.989. GTGAATAACA was tested, and the switch fluorescence ratio was 0.974. Work on GTGAATGCGT yielded a switch fluorescence ratio of 1.01. GTGAATGG was tested, and the switch fluorescence ratio was 1.02. GTGAATGGAA gave a switch fluorescence ratio of 0.966. In the case of GTGAATTCGC, the switch fluorescence ratio is reported as 0.984. GTGAATTTAA was tested, and the switch fluorescence ratio was 0.993. Work on GTGACAGCGA yielded a switch fluorescence ratio of 1.13. GTGACATGTC gave a switch fluorescence ratio of 1.04. GTGACCCCAT was tested, and the switch fluorescence ratio was 1.07. GTGACTTATG showed a switch fluorescence ratio of 0.919. GTGACTTGG gave a switch fluorescence ratio of 0.99. Work on GTGAGAAGAC yielded a switch fluorescence ratio of 0.981. GTGAGATAGA showed a switch fluorescence ratio of 0.973. GTGAGGAAAA showed a switch fluorescence ratio of 1.04. GTGAGGTATT was tested, and the switch fluorescence ratio was 0.984. Work on GTGATACGCT yielded a switch fluorescence ratio of 1.07. For GTGATCAGCC, the switch fluorescence ratio was 1.08. With GTGATCCA the switch fluorescence ratio was 1.01. For GTGATCGCTT, the switch fluorescence ratio was 1.03. GTGATCTGG showed a switch fluorescence ratio of 0.987. Work on GTGATCTTGC yielded a switch fluorescence ratio of 1.01. GTGATGACGG gave a switch fluorescence ratio of 1. Sequence GTGATGATGG has a switch fluorescence ratio of 0.978. With GTGATGCTAA the switch fluorescence ratio was 0.983. With GTGATGGCGG the switch fluorescence ratio was 0.989. GTGATGGGC showed a switch fluorescence ratio of 1.06. With GTGATGGTGT the switch fluorescence ratio was 0.962. With GTGATGTGCG the switch fluorescence ratio was 0.908. GTGCAGCCAT showed a switch fluorescence ratio of 0.968. In the case of GTGCATGGAG, the switch fluorescence ratio is reported as 0.962. GTGCCCTAGC was tested, and the switch fluorescence ratio was 0.977. GTGCGATGGG gave a switch fluorescence ratio of 0.996. GTGCGGTCCT showed a switch fluorescence ratio of 0.984. For GTGCGGTCGG, the switch fluorescence ratio was 0.978. With GTGCGTGTCC the switch fluorescence ratio was 0.974. Sequence GTGCGTGTTC has a switch fluorescence ratio of 0.977. GTGCGTTTCA was tested, and the switch fluorescence ratio was 0.999. GTGCTAAATG showed a switch fluorescence ratio of 0.957. Sequence GTGCTAGAGG has a switch fluorescence ratio of 1.02. GTGCTAGGGA was tested, and the switch fluorescence ratio was 0.991. Work on GTGCTATAAA yielded a switch fluorescence ratio of 1.02. Work on GTGCTCAAAT yielded a switch fluorescence ratio of 1.01. With GTGCTCCGGA the switch fluorescence ratio was 1.05. Sequence GTGCTCGGAG has a switch fluorescence ratio of 0.965. Work on GTGCTGGGAC yielded a switch fluorescence ratio of 1.04. In the case of GTGCTTTCCT, the switch fluorescence ratio is reported as 1.05. GTGCTTTGGT gave a switch fluorescence ratio of 0.998. With GTGGAAGTCT the switch fluorescence ratio was 1.06. In the case of GTGGAATCGA, the switch fluorescence ratio is reported as 1.01. GTGGACAAAC was tested, and the switch fluorescence ratio was 1.05. Sequence GTGGACACAG has a switch fluorescence ratio of 0.964. GTGGACAGAT gave a switch fluorescence ratio of 0.966. GTGGAGACAT was tested, and the switch fluorescence ratio was 1.02. GTGGAGAGGA was tested, and the switch fluorescence ratio was 0.924. GTGGAGCGTG was tested, and the switch fluorescence ratio was 1.03. For GTGGAGCTAC, the switch fluorescence ratio was 5.13. With GTGGATACCT the switch fluorescence ratio was 1.12. GTGGATGAGT gave a switch fluorescence ratio of 0.997. Sequence GTGGATTAAG has a switch fluorescence ratio of 1.01. Sequence GTGGCGAGGT has a switch fluorescence ratio of 1.04. With GTGGCGTGGG the switch fluorescence ratio was 1.02. With GTGGCTGTCC the switch fluorescence ratio was 1.04. In the case of GTGGCTTACC, the switch fluorescence ratio is reported as 0.96. With GTGGGATTGT the switch fluorescence ratio was 0.969. For GTGGGCAAGC, the switch fluorescence ratio was 1.09. Work on GTGGGCCGT yielded a switch fluorescence ratio of 1.11. For GTGGGCCTAG, the switch fluorescence ratio was 1.01. For GTGGGCCTTG, the switch fluorescence ratio was 1.01. Work on GTGGGCTAAT yielded a switch fluorescence ratio of 0.97. GTGGGCTAGA gave a switch fluorescence ratio of 0.983. GTGGGCTATT was tested, and the switch fluorescence ratio was 1.01. GTGGGGAAA was tested, and the switch fluorescence ratio was 1.3. Work on GTGGGGCGCT yielded a switch fluorescence ratio of 0.971. Sequence GTGGGTATAT has a switch fluorescence ratio of 1.02. In the case of GTGGGTCCTC, the switch fluorescence ratio is reported as 1.05. Work on GTGGGTTGAA yielded a switch fluorescence ratio of 0.988. Sequence GTGGTCATCC has a switch fluorescence ratio of 0.973. For GTGGTCTACG, the switch fluorescence ratio was 0.941. GTGGTGATCT showed a switch fluorescence ratio of 1.01. With GTGGTGGGAG the switch fluorescence ratio was 1.02. In the case of GTGGTGTAAG, the switch fluorescence ratio is reported as 0.955. With GTGGTTACG the switch fluorescence ratio was 0.995. Sequence GTGGTTATCA has a switch fluorescence ratio of 1.01. For GTGGTTCGTA, the switch fluorescence ratio was 1.05. GTGGTTCTTA gave a switch fluorescence ratio of 0.968. With GTGTACGGTA the switch fluorescence ratio was 1.1. Sequence GTGTAGAACA has a switch fluorescence ratio of 1.01. With GTGTAGAGCT the switch fluorescence ratio was 1.04. Sequence GTGTAGATTT has a switch fluorescence ratio of 0.975. GTGTATTTAA gave a switch fluorescence ratio of 1. GTGTCATACT was tested, and the switch fluorescence ratio was 1. With GTGTCCCACT the switch fluorescence ratio was 1.02. Sequence GTGTCCCGCG has a switch fluorescence ratio of 1.03. Sequence GTGTCCTAGC has a switch fluorescence ratio of 0.975. Sequence GTGTCCTAGG has a switch fluorescence ratio of 0.966. Work on GTGTCGTACT yielded a switch fluorescence ratio of 0.983. GTGTGAACAG showed a switch fluorescence ratio of 1.01. GTGTGACGAG showed a switch fluorescence ratio of 0.991. With GTGTGAGTAT the switch fluorescence ratio was 0.96. Work on GTGTGCCGG yielded a switch fluorescence ratio of 0.997. In the case of GTGTGCGCTT, the switch fluorescence ratio is reported as 1. In the case of GTGTGGAACT, the switch fluorescence ratio is reported as 0.994. With GTGTGGCCGG the switch fluorescence ratio was 1.01. GTGTGTACC gave a switch fluorescence ratio of 1. Sequence GTGTTAATCA has a switch fluorescence ratio of 1.01. Work on GTGTTAATGC yielded a switch fluorescence ratio of 1.1. In the case of GTGTTACCTA, the switch fluorescence ratio is reported as 1.03. With GTGTTAGAAC the switch fluorescence ratio was 0.95. GTGTTAGCGG gave a switch fluorescence ratio of 1. For GTGTTAGTGC, the switch fluorescence ratio was 0.958. In the case of GTGTTAGTTC, the switch fluorescence ratio is reported as 0.99. GTGTTCACGG showed a switch fluorescence ratio of 0.984. GTGTTCACTG gave a switch fluorescence ratio of 1. Sequence GTGTTCCCAC has a switch fluorescence ratio of 0.97. Work on GTGTTCCTGG yielded a switch fluorescence ratio of 1. GTGTTCGGGA showed a switch fluorescence ratio of 1.03. In the case of GTGTTGATGA, the switch fluorescence ratio is reported as 0.975. With GTGTTGCAGC the switch fluorescence ratio was 1.01. Work on GTGTTGGGCT yielded a switch fluorescence ratio of 0.993. GTGTTTCGAC showed a switch fluorescence ratio of 0.999. GTTAAAGGCA gave a switch fluorescence ratio of 0.948. GTTAAATTCG was tested, and the switch fluorescence ratio was 0.931. Work on GTTAACAAAT yielded a switch fluorescence ratio of 0.999. Sequence GTTAACGTAC has a switch fluorescence ratio of 1.82. For GTTAACTAGG, the switch fluorescence ratio was 0.996. In the case of GTTAAGAGAA, the switch fluorescence ratio is reported as 1.01. In the case of GTTAAGTCTA, the switch fluorescence ratio is reported as 0.963. GTTAATATGT was tested, and the switch fluorescence ratio was 0.955. Work on GTTAATCTCG yielded a switch fluorescence ratio of 0.978. GTTAATGTC was tested, and the switch fluorescence ratio was 0.949. In the case of GTTACCATTC, the switch fluorescence ratio is reported as 0.962. GTTACCGTCG showed a switch fluorescence ratio of 0.972. GTTACGATAT was tested, and the switch fluorescence ratio was 1.2. Sequence GTTACGTCCC has a switch fluorescence ratio of 1.06. Work on GTTACTGAGA yielded a switch fluorescence ratio of 1.04. For GTTAGACGTC, the switch fluorescence ratio was 1.1. With GTTAGAGGAG the switch fluorescence ratio was 1.05. Sequence GTTAGCCCCA has a switch fluorescence ratio of 0.994. Work on GTTAGCCGAC yielded a switch fluorescence ratio of 1.05. In the case of GTTAGCGATA, the switch fluorescence ratio is reported as 1.29. With GTTAGCTGGG the switch fluorescence ratio was 1.02. GTTAGGAACG gave a switch fluorescence ratio of 1.05. Sequence GTTAGGGGTA has a switch fluorescence ratio of 0.957. GTTAGTATGA showed a switch fluorescence ratio of 1. GTTAGTCGA gave a switch fluorescence ratio of 1.02. GTTAGTGCGT was tested, and the switch fluorescence ratio was 0.949. Sequence GTTAGTGTTA has a switch fluorescence ratio of 1.04. For GTTAGTTCTA, the switch fluorescence ratio was 0.964. Work on GTTAGTTGCT yielded a switch fluorescence ratio of 0.976. GTTAGTTTAT was tested, and the switch fluorescence ratio was 0.956. GTTATAACCC gave a switch fluorescence ratio of 0.997. In the case of GTTATAATAA, the switch fluorescence ratio is reported as 0.979. With GTTATAG the switch fluorescence ratio was 1.07. Work on GTTATAGATG yielded a switch fluorescence ratio of 0.996. In the case of GTTATAGTTC, the switch fluorescence ratio is reported as 0.988. Sequence GTTATATAAA has a switch fluorescence ratio of 0.979. Work on GTTATCATAC yielded a switch fluorescence ratio of 1.07. With GTTATCGGCT the switch fluorescence ratio was 0.969. For GTTATGACAG, the switch fluorescence ratio was 0.931. Work on GTTATGCGAC yielded a switch fluorescence ratio of 0.993. GTTATGGCTA was tested, and the switch fluorescence ratio was 0.995. Sequence GTTATTAAT has a switch fluorescence ratio of 1.02. For GTTATTATAT, the switch fluorescence ratio was 0.996. GTTATTCCTT showed a switch fluorescence ratio of 1.05. GTTATTGGAA was tested, and the switch fluorescence ratio was 0.985. GTTCAATACT showed a switch fluorescence ratio of 2.06. GTTCACGTTT showed a switch fluorescence ratio of 0.999. For GTTCATACAA, the switch fluorescence ratio was 1. With GTTCATGCGG the switch fluorescence ratio was 0.96. Work on GTTCCAAGGC yielded a switch fluorescence ratio of 1.09. GTTCCGTGGC showed a switch fluorescence ratio of 1.31. In the case of GTTCCTAGGA, the switch fluorescence ratio is reported as 1.02. GTTCCTTAGT was tested, and the switch fluorescence ratio was 0.946. Work on GTTCGCCCTT yielded a switch fluorescence ratio of 1.01. For GTTCGCTTCC, the switch fluorescence ratio was 2.11. GTTCGGTCCA gave a switch fluorescence ratio of 1. Sequence GTTCGGTGCT has a switch fluorescence ratio of 0.992. Work on GTTCGTAGTG yielded a switch fluorescence ratio of 0.951. Sequence GTTCTGACCG has a switch fluorescence ratio of 1.11. With GTTCTGCGGC the switch fluorescence ratio was 1.09. Work on GTTCTGTGGG yielded a switch fluorescence ratio of 0.939. For GTTCTTATTT, the switch fluorescence ratio was 0.998. Sequence GTTCTTGGCG has a switch fluorescence ratio of 0.982.

— the supplement of paper PMC10126150
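Note: ATP exposure 15 min at 22 °C before imaging.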
